# Laboratory results as given in the supplement of paper PMC8728848.
# This is one part of the list.
# B1: mLPHN-1 (Mus musculus), Q80TR1 (protein)
# chain: MARLAAALWSLCVTTVLVTSATQGLSRAGLPFGLMRRELACEGYPIELRCPGSDVIMVENANYGRTDDKICDADPFQMENVQCYLPDAFKIMSQRCNNRTQCVVVAGSDAFPDPCPGTYKYLEVQYDCVPYIFVCPGTLQKVLEPTSTHESEHQSGAWCKDPLQAGDRIYVMPWIPYRTDTLTEYASWEDYVAARHTTTYRLPNRVDGTGFVVYDGAVFYNKERTRNIVKYDLRTRIKSGETVINTANYHDTSPYRWGGKTDIDLAVDENGLWVIYATEGNNGRLVVSQLNPYTLRFEGTWETGYDKRSASNAFMVCGVLYVLRSVYVDDDSEAAGNRVDYAFNTNANREEPVSLAFPNPYQFVSSVDYNPRDNQLYVWNNYFVVRYSLEFGPPDPSAGPATSPPLSTTTTARPTPLTSTASPAATTPLRRAPLTTHPVGAINQLGPDLPPATAPAPSTRRPPAPNLHVSPELFCEPREVRRVQWPATQQGMLVERPCPKGTRGIASFQCLPALGLWNPRGPDLSNCTSPWVNQVAQKIKSGENAANIASELARHTRGSIYAGDVSSSVKLMEQLLDILDAQLQALRPIERESAGKNYNKMHKRERTCKDYIKAVVETVDNLLRPEALESWKDMNATEQVHTATMLLDVLEEGAFLLADNVREPARFLAAKQNVVLEVTVLNTEGQVQELVFPQEYPSENSIQLSANTIKQNSRNGVVKVVFILYNNLGLFLSTENATVKLAGEAGTGGPGGASLVVNSQVIAASINKESSRVFLMDPVIFTVAHLEAKNHFNANCSFWNYSERSMLGYWSTQGCRLVESNKTHTTCACSHLTNFAVLMAHREIYQGRINELLLSVITWVGIVISLVCLAICISTFCFLRGLQTDRNTIHKNLCINLFLAELLFLVGIDKTQYEVACPIFAGLLHYFFLAAFSWLCLEGVHLYLLLVEVFESEYSRTKYYYLGGYCFPALVVGIAAAIDYRSYGTEKACWLRVDNYFIWSFIGPVSFVIVVNLVFLMVTLHKMIRSSSVLKPDSSRLDNIKSWALGAIALLFLLGLTWAFGLLFINKESVVMAYLFTTFNAFQGVFIFVFHCALQKKVHKEYSKCLRHSYCCIRSPPGGTHGSLKTSAMRSNTRYYTGTQSRIRRMWNDTVRKQTESSFMAGDINSTPTLNRGTMGNHLLTNPVLQPRGGTSPYNTLIAESVGFNPSSPPVFNSPGSYREPKHPLGGREACGMDTLPLNGNFNNSYSLRSGDFPPGDGGPEPPRGRNLADAAAFEKMIISELVHNNLRGASGGAKGPPPEPPVPPVPGVSEDEAGGPGSADRAEIELLYKALEEPLLLPRAQSVLYQSDLDESESCTAEDGATSRPLSSPPGRDSLYASGANLRDSPSYPDSSPEGPNEALPPPPPAPPGPPEIYYTSRPPALVARNPLQGYYQVRRPSHEGYLAAPSLEGPGPDGDGQMQLVTSL
# Key:
# Assay in all cases: glycan array binding signal (z-score within array); higher = stronger binding
# Conditions in all cases: glycan notation: IUPAC condensed, linker removed
# [1] = biological target: Gal(b1-2)Gal
# In short: (§1)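 The binding signal is a Z-score computed within each array. Data were drawn from 3228 arrays in the Consortium for Functional Glycomics database, restricted to those with a known protein sequence. Scores were averaged over arrays of the same protein sequence at different concentrations or buffers, and over linkers, and negative values can be taken as non-binding.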
# [2] = biological target: Gal(b1-3)Gal
# In short: as §1
# [3] = biological target: Gal(b1-3)Gal(b1-4)GlcNAc
# In short: as §1
# [4] = biological target: Gal(b1-3)GalNAc
# In short: as §1
# [5] = biological target: Gal(b1-3)GalNAc(b1-3)Gal(a1-4)Gal(b1-4)Glc
# In short: as §1
# [6] = biological target: Gal(b1-3)GalNAc(b1-4)Gal(b1-4)Glc
# In short: as §1
# [7] = biological target: Gal(b1-3)GalNAc(b1-4)[Neu5Ac(a2-3)]Gal(b1-4)Glc
# In short: as §1
# [8] = biological target: Gal(b1-3)GlcNAc
# In short: as §1
# [9] = biological target: Gal(b1-3)GlcNAc(b1-2)Man(a1-3)[Gal(b1-3)GlcNAc(b1-2)Man(a1-6)]Man(b1-4)GlcNAc(b1-4)GlcNAc
# In short: as §1
# [10] = biological target: Gal(b1-3)GlcNAc(b1-3)Gal(b1-3)GlcNAc
# In short: as §1
# [11] = biological target: Gal(b1-3)GlcNAc(b1-3)Gal(b1-4)Glc
# In short: as §1
# [12] = biological target: Gal(b1-3)GlcNAc(b1-3)Gal(b1-4)GlcNAc
# In short: as §1
# [13] = biological target: Gal(b1-3)[Fuc(a1-4)]GlcNAc
# In short: as §1
# [14] = biological target: Gal(b1-3)[Fuc(a1-4)]GlcNAc(b1-3)Gal(b1-3)[Fuc(a1-4)]GlcNAc
# In short: as §1
# [15] = biological target: Gal(b1-3)[Fuc(a1-4)]GlcNAc(b1-3)Gal(b1-4)GlcNAc
# In short: as §1
# [16] = biological target: Gal(b1-3)[Fuc(a1-4)]GlcNAc(b1-3)Gal(b1-4)[Fuc(a1-3)]GlcNAc
# In short: as §1
# [17] = biological target: Gal(b1-3)[GlcNAc(b1-6)]GalNAc
# In short: as §1
# [18] = biological target: Gal(b1-3)[Neu5Ac(a2-6)]GalNAc
# In short: as §1
# [19] = biological target: Gal(b1-3)[Neu5Ac(a2-6)]GlcNAc(b1-6)Gal(b1-4)Glc
# In short: as §1
# [20] = biological target: Gal(b1-3)[Neu5Ac(b2-6)]GalNAc
# In short: as §1
# [21] = biological target: Gal(b1-4)GalNAc(a1-3)[Fuc(a1-2)]Gal(b1-4)GlcNAc
# In short: as §1
# [22] = biological target: Gal(b1-4)GalNAc(b1-3)[Fuc(a1-2)]Gal(b1-4)GlcNAc
# In short: as §1
# [23] = biological target: Gal(b1-4)Glc
# In short: as §1
# [24] = biological target: Gal(b1-4)Glc6S
# In short: as §1
# [25] = biological target: Gal(b1-4)GlcNAc
# In short: as §1
# [26] = biological target: Gal(b1-4)GlcNAc(a1-6)Gal(b1-4)GlcNAc
# In short: as §1
# [27] = biological target: Gal(b1-4)GlcNAc(b1-2)Man(a1-3)[Gal(b1-4)GlcNAc(b1-2)Man(a1-6)]Man(b1-4)GlcNAc(b1-4)GlcNAc
# In short: as §1
# [28] = biological target: Gal(b1-4)GlcNAc(b1-3)Gal(b1-3)GlcNAc
# In short: as §1
# [29] = biological target: Gal(b1-4)GlcNAc(b1-3)Gal(b1-4)Glc
# In short: as §1
# [30] = biological target: Gal(b1-4)GlcNAc(b1-3)Gal(b1-4)GlcNAc
# In short: as §1
binder,measurement,setting,value
B1,glycan array binding signal (z-score),[1],-0.052
same,glycan array binding signal (z-score),[2],-0.128
same,glycan array binding signal (z-score),[3],0.16
same,glycan array binding signal (z-score),[4],0.025
same,glycan array binding signal (z-score),[5],-0.1
same,glycan array binding signal (z-score),[6],-0.183
same,glycan array binding signal (z-score),[7],-0.12
same,glycan array binding signal (z-score),[8],-0.325
same,glycan array binding signal (z-score),[9],0.025
same,glycan array binding signal (z-score),[10],-0.333
same,glycan array binding signal (z-score),[11],0.789
same,glycan array binding signal (z-score),[12],-0.33
same,glycan array binding signal (z-score),[13],-0.197
same,glycan array binding signal (z-score),[14],-0.521
same,glycan array binding signal (z-score),[15],-0.369
same,glycan array binding signal (z-score),[16],-0.14
same,glycan array binding signal (z-score),[17],-0.336
same,glycan array binding signal (z-score),[18],-0.398
same,glycan array binding signal (z-score),[19],-0.14
same,glycan array binding signal (z-score),[20],0.071
same,glycan array binding signal (z-score),[21],0.331
same,glycan array binding signal (z-score),[22],1.66
same,glycan array binding signal (z-score),[23],-0.186
same,glycan array binding signal (z-score),[24],0.054
same,glycan array binding signal (z-score),[25],-0.404
same,glycan array binding signal (z-score),[26],0.718
same,glycan array binding signal (z-score),[27],0.535
same,glycan array binding signal (z-score),[28],0.183
same,glycan array binding signal (z-score),[29],-0.322
same,glycan array binding signal (z-score),[30],-0.105
